Laboratory results published in paper PMC12136788.
The list shows a part of the results.

T1: UNK ZnF1-3 (human, UniProt Q9C0B0 31-174)
T1 sequence: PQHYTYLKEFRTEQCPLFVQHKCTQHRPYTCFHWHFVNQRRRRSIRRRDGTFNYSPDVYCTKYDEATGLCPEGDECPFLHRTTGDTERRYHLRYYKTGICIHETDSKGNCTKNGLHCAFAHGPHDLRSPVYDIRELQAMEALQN

B1: chr7:141438946:141438947:+_ENSG00000106028_ENST00000265304|hu_mus|hu_hu_hu_mus_True|18_78 (ssRNA)
RNA: GGGAGUUCUACAGUCCGACGAUCGACGAAAUACCUGUAACACAGGUCUUCGAAACAUUCUAUUUUCUUUUCUUACAACCUAAUCUUUAGGCUUUUCCUAAAGGAAAGAAAGAAAAGGCCCAGCCACUAAAUCAAGAAACUACACAACAGAGGAUUGAGCAUCA
B2: chr22:19452774:19452775:-_ENSG00000070010_ENST00000399523|hu_hu|hu_hu_hu_mus_False|8_28 (ssRNA)
RNA: GGGAGUUCUACAGUCCGACGAUCCUUCUCAUUGUAGUUGAUAGCAAUCACAUCUCCAGUCGUCAGACAGGCGAAGUUUCUCAAUGCAUUUUCUAAUACCGCUUUAGGGUUGGUGAUAUCCAGGAAGUCAGGGCUCUGAGGCUGCAACAGAGGAUUGAGCAUCA
B3: chr1:39494564:39494565:+_ENSG00000168653_ENST00000372967|hu_hu|hu_hu_hu_mus_True|1_78 (ssRNA)
RNA: GGGAGUUCUACAGUCCGACGAUCAUGCAUUCGCCUCAUCGUUUUGUACCGAAGCAAACACUCUACGAAGUCAUCGAACUCUAUCUUGCACUCCUUUUUCGCCCGGGUCCCACCGAUCCCGUGUGCACACUCUAUCCAUUCUUUCAACAGAGGAUUGAGCAUCA
B4: chr5:52541547:52541548:-_ENSMUSG00000029169_ENSMUST00000031061|mus_mus|motif|central (ssRNA)
RNA: GGGAGUUCUACAGUCCGACGAUCUAUGGAGACAGAAGAUUGUGUCUACAGAAGCACAAGUUGUAACAUUUCACAACUUCGGAAAGGAAUGUCAACAAUUACAACGAUCAUGCAUACCAUGGUCGAUAAUCACAUUUUAGAAGCCAACAGAGGAUUGAGCAUCA
B5: 129699038_129699158_1198_3pUTR_ENSMUSG00000026349_ENSMUST00000027587|mouse|control|control (ssRNA)
RNA: GGGAGUUCUACAGUCCGACGAUCAGCAACUUUGUCCGGCCUGUGAUGUAAUCCAGAAUGCAGUGCCAUUGAAGGUCCCUGCUGGAAGCUUAUGUACUGGCUCCCAGAGAGAGUGGCCUCCUGUUUCUGUGUGUACACUGGGUCCAACAGAGGAUUGAGCAUCA
B6: 21912454_21924271_102_5pUTR_ENSG00000158856_ENST00000443491|human|control|control (ssRNA)
RNA: GGGAGUUCUACAGUCCGACGAUCGCUGGCGCGUUCCCCCGGGCUGGCGCGUCCUCAUCCCUCGGCGGUGACUCUCCAGGCUUCAAGGGCCCAGGGCGUGGGGCAGGAGCGCAGCAGCCUCCUCGGUGACAUACACCUCCAUCCCAACAGAGGAUUGAGCAUCA

Biological target: T1, UNK ZnF1-3
Experiment: nsRBNS (natural sequence RNA bind-n-seq); RBNS binding buffer (assumed for nsRBNS): 25 mM Tris pH 7.5, 150 mM KCl, 3 mM MgCl2, 0.01% Triton X-100, 500 ug/ml BSA, 20 U/ml SUPERase-In, 4 C; UNK is unkempt and MSI1 is Musashi-1; names of the RNAs are library labels; protein concentration not given here; high values mean tight binding

Binder	binding signal
B1	0.824 enrichment R
B2	0.906 enrichment R
B3	0.723 enrichment R
B4	1.24 enrichment R
B5	0.344 enrichment R
B6	0.698 enrichment R
